According to PubChem BioAssay AID2546 (National Center for Advancing Translational Sciences (NCATS), 2010):
In all, about 310,000 compounds went through this assay and about 11,000 (3.5%) were called active. The shares of active, inactive and inconclusive entries below differ from those in the screen. Calls follow the shape of the dose curve; as a rule, active = well fitted inhibition curve with a large enough effect; inconclusive = small, poorly fitted or top-dose-only effect, or effect the other way; inactive = flat fitted curve, though single readings scatter. Potencies of inconclusive entries are left out as doubtful fits.
Potency is read from the fitted curve at half-maximal effect; tags tell the direction and shape of the fitted curve.

Assay: VP16 counterscreen qHTS for inhibitors of ROR gamma transcriptional activity;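 also: Gal4-VP16 expression switched on by copper sulfate through the metallothionein promoter; nearly all actives have a fitted effect of over 50% in size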
Conditions: Drosophila S2 Gal4-VP16 UAS-luciferase, luminescence, 20 h; series mostly up to 53.6 µM
With `COc1ccc(OCCOc2cccc(C=C3C(=O)NC(=O)NC3=O)c2)cc1` the Potency was inconclusive [inhibitor, partial curve]. For `O=C(CCl)c1ccc(Cl)cc1Cl`, the Potency was inconclusive [inhibitor, single point]. In the case of `O=C(CN1CCOCC1)c1cccc2ccccc12`, the Potency is reported as “inactive”. For `CCOc1ccc(NC(=O)c2ccc(NC(=O)COC(=O)Cc3ccccc3)cc2)cc1`, the Potency was inconclusive [activator, single point]. With `CC/C(=N\NC(=S)Nc1ccccc1)c1c(O)[nH]c(=O)[nH]c1=O` the Potency was inconclusive [inhibitor, single point]. With `NC(N)=Nc1ccc2[nH]c3c(c2c1)C[C@]1(O)[C@@H]2Cc4ccc(O)c5c4[C@]1(CCN2CC1CC1)[C@@H]3O5` the Potency was “inactive”. In the case of `COc1ccc(C(=O)CN2CCCCC2)cc1`, the Potency is reported as “inactive”. In the case of `O=C(COC(=O)c1cccc(O)c1)Nc1ccc(Cl)cc1C(=O)c1ccccc1`, the Potency is reported as inconclusive [inhibitor, single point]. In the case of `Cc1ccc(S(=O)(=O)N2CC2(C)CCl)cc1` (stereo unspecified), the Potency is reported as “inactive”. For `CN(C)C(=O)On1c(-c2ccccc2)nc2ccc(Cl)cc21`, the Potency was inconclusive [inhibitor, full curve]. With `C[C@]12CCC3C(CC[C@]4(O)C[C@@H](O)CC[C@]34C=O)[C@@]1(O)CC[C@@H]2C1=CC(=O)OC1` (stereo partly specified) the Potency was “inactive”. With `CNc1cc(Cl)c2nonc2c1[N+](=O)[O-]` the Potency was active: 3.55 µM. In the case of `CCC(=Nc1ccc(OC)cc1OC)c1c(O)n(C2CCCCC2)c(=O)[nH]c1=O`, the Potency is reported as active: 6.31 µM. For `COc1cccc(C(=O)C2CCCN(Cc3ccc4nsnc4c3)C2)c1` (stereo unspecified), the Potency was “inactive”. In the case of `Clc1cccc(CN2CCCCC2c2cccnc2)c1` (stereo unspecified), the Potency is reported as inconclusive [inhibitor, single point]. For `COC(=O)[C@]1(C)CC[C@@]2(C)CC[C@@]3(C)C4=CC=C5C(=CC(=O)C(O)=C5C)[C@@]4(C)CC[C@@]3(C)C2C1` (stereo partly specified), the Potency was active: 3.55 µM. In the case of `CCOC(=O)c1cc(CC)sc1/N=C/c1c(O)[nH]c(=S)[nH]c1=O`, the Potency is reported as inconclusive [inhibitor, single point]. In the case of `O=C(c1ccc2c(=O)n(Cc3ccc4c(c3)OCO4)c(=S)[nH]c2c1)N1CCC2(CC1)OCCO2`, the Potency is reported as inconclusive [inhibitor, single point]. With `O=[N+]([O-])C(Br)Br` the Potency was active: 11.2 µM. For `CN(C(=O)Cc1ccc(Cl)c(Cl)c1)[C@@H](CN1CCCC1)c1cccc(OCC(=O)O)c1`, the Potency was “inactive”. In the case of `O=[N+]([O-])c1ccc(N2CCCC(C(F)(F)F)C2)c2ccncc12` (stereo unspecified), the Potency is reported as inconclusive [inhibitor, single point].
